Assay results published in publication PMC10312969.
Substitutions are numbered along the chain they refer to. No constants are given. Whether binding was seen depends on the method and setting. In cells and extracts the contact can be indirect. Some results given as binding are weak or reduced against the parent protein; the word gives no strength. Sequences can lack the tags named with a protein.

The chains behind the UniProt entries cited, without tags or fusion partners.
UniProt P30153: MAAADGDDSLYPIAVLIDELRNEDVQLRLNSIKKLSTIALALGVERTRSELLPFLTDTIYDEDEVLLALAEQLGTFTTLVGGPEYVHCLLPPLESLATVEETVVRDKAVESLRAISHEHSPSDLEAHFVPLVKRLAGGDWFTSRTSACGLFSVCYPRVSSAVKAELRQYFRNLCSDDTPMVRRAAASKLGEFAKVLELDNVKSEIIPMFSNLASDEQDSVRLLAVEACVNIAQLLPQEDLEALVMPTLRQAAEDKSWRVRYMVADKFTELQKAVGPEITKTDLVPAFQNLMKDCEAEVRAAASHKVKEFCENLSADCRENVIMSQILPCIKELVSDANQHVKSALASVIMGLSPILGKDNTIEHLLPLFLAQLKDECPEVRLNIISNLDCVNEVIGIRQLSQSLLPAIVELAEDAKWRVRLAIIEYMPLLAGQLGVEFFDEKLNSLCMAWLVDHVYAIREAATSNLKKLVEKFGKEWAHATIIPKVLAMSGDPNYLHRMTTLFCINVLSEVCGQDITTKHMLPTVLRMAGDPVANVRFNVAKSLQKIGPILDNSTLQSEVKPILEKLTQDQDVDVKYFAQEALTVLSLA
UniProt Q96KP1: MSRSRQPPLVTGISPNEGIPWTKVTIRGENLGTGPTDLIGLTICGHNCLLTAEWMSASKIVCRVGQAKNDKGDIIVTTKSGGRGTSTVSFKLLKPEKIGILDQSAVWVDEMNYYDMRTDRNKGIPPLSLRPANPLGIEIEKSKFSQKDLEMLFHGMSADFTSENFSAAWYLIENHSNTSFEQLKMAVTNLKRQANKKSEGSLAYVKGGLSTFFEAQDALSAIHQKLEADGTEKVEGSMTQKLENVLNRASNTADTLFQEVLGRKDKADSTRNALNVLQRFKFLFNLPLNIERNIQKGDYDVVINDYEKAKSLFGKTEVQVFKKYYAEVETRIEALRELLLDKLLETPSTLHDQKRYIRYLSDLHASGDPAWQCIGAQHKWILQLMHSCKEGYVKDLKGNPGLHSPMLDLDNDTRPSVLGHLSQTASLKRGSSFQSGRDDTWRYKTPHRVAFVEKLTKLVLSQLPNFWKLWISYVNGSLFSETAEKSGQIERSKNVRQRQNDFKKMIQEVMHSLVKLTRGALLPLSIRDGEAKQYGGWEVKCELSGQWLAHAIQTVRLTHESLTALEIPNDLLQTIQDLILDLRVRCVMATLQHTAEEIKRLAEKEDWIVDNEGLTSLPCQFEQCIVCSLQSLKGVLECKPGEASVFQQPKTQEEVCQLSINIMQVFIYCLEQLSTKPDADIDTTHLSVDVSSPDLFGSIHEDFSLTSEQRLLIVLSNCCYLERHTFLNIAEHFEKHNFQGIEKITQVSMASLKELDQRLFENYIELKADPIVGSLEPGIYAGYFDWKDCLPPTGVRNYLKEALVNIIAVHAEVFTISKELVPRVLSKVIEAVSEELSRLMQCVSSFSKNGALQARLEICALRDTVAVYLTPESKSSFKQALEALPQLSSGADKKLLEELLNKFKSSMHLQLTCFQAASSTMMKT
UniProt Q8K1M6: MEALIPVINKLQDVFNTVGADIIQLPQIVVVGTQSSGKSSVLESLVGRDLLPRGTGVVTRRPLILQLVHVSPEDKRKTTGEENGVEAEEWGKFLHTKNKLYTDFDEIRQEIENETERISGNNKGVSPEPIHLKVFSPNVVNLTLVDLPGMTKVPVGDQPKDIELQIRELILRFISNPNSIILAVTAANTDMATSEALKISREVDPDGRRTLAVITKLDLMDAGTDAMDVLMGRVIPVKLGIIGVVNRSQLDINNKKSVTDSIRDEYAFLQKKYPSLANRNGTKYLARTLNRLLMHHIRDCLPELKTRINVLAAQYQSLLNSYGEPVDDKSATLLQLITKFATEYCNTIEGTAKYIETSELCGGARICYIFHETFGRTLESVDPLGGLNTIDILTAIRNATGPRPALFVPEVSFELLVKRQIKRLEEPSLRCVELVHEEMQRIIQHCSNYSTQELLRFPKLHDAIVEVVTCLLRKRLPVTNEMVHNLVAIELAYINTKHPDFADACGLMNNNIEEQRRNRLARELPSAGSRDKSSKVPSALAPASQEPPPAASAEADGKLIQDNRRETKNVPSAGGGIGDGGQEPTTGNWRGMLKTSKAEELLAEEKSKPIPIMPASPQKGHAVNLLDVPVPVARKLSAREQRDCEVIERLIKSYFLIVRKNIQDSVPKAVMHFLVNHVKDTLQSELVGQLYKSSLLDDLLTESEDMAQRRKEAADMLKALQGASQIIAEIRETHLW

Assays:
Flag-RalA^WT [1] = biological target: T1, Flag-RalA^WT (UniProt P11233); assay: pull-down; Flag-RalA^WT on ANTI-FLAG M2 beads loaded with 2 mM GTPγS (1 hr, 25°C), then incubated with GFP-PP2Aa HEK293T lysate; only the target purified
T1 sequence: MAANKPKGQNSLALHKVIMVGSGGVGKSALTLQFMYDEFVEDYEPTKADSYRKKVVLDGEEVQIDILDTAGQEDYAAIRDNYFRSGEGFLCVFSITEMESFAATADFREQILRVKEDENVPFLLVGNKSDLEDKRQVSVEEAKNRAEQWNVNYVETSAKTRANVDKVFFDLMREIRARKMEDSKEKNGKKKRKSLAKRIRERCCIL

Flag-RalA^WT [2] = biological target: T1, Flag-RalA^WT; assay: pull-down; Flag-RalA^WT held on ANTI-FLAG M2 affinity gel and washed, incubated with GFP-PP2Aa HEK293T lysate at 4°C overnight; lysis buffer 25 mM Tris-HCl, 130 mM NaCl, 10 mM MgCl2, 10% glycerol, 0.5% NP-40; only the target purified
Flag-RalA^WT [3] = biological target: T1, Flag-RalA^WT; assay: pull-down; Flag-RalA^WT on ANTI-FLAG M2 beads loaded with 200 μM GDP (1 hr, 25°C), then incubated with GFP-PP2Aa HEK293T lysate; only the target purified
[4] = biological target: T2, RalA^S28N (dominant negative mutant), Flag-tagged (UniProt P11233); assay: co-IP; co-transfected HEK293T cells; ANTI-FLAG M2 affinity gel, 4°C overnight; lysis buffer (25 mM Tris-HCl, 130 mM NaCl, 10 mM MgCl2, 10% glycerol, 0.5% NP-40) or Drp1 buffer (25 mM Tris, 50 mM NaCl, 0.5 mM MgCl2, 10% glycerol, 0.5% NP-40)
T2 sequence: T1 sequence with S28N

[5] = biological target: T3, RalA^G23V (constitutively active mutant), Flag-tagged (UniProt P11233); assay: as above
T3 sequence: T1 sequence with G23V

Flag-RalA^WT [6] = biological target: T1, Flag-RalA^WT; assay: as above

GFP-PP2Aa (protein phosphatase 2A subunit A alpha) (from UniProt P30153 1-589)
binding (Flag-RalA^WT [1]): binds
binding (Flag-RalA^WT [2]): binds
binding (Flag-RalA^WT [3]): no binding (condition: RalA loaded with 200 μM GDP)

Sec5 (from UniProt Q96KP1 1-924)
binding [4]: no binding
binding [5]: binds

PP2Aa co-expressed in HEK293T cells (tag not told) (from UniProt P30153 1-589)
binding [5]: binds

Drp1 (from UniProt Q8K1M6 1-736)
binding (Flag-RalA^WT [6]): binds
